Assay results from PubChem BioAssay AID1745853 (National Center for Advancing Translational Sciences (NCATS), 2022).
This is one part of the list. These are further read-outs of the screen, such as a control signal, another cell line or another target. No call is given for them.

Legend:
Assay in all cases: Primary Screen for Target Class Profiling of Small Molecule Inhibitors of Methyltransferases
[1] = target: Glycine N-methyltransferase (Homo sapiens) (UniProt Q14749); conditions: purified enzyme, MTase-Glo SAH luminescence; measured here: GNMT inhibition; at 40 µM; stronger effect = lower value
Procedure, shortened: (§1)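 Each enzyme was reacted with SAM and its substrate, with compounds tested once at 40 uM; SAH formed was read by MTase-Glo luminescence.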

[2] = target: Guanidinoacetate N-methyltransferase (Homo sapiens) (UniProt Q14353); conditions: purified enzyme, MTase-Glo SAH luminescence; measured here: GAMT inhibition; at 40 µM; stronger effect = lower value
Procedure, shortened: as §1

[3] = target: Histamine N-methyltransferase (Homo sapiens) (UniProt P50135); conditions: purified enzyme, MTase-Glo SAH luminescence; measured here: HNMT inhibition; at 40 µM; stronger effect = lower value
Procedure, shortened: as §1

[4] = target: Nicotinamide N-methyltransferase (Homo sapiens) (UniProt P40261); conditions: purified enzyme, MTase-Glo SAH luminescence; measured here: NNMT inhibition; at 40 µM; stronger effect = lower value
Procedure, shortened: as §1

[5] = target: Phenylethanolamine N-methyltransferase (Homo sapiens) (UniProt P11086); conditions: purified enzyme, MTase-Glo SAH luminescence; measured here: PNMT inhibition; at 40 µM; stronger effect = lower value
Procedure, shortened: as §1
% is set by controls: 0 for no effect and ±100 for the full control effect.

Row | Structure (SMILES) | activity change, negative = inhibition [1] | activity change, negative = inhibition [2] | activity change, negative = inhibition [3] | activity change, negative = inhibition [4] | activity change, negative = inhibition [5]
1 | O=C1NCC2(CCCN(C(=O)CCc3nc4ccccc4[nH]c3=O)C2)O1 (stereo not given) | -9.25% | -9.05% | -2.08% | -15.7% | -0.351%
2 | O=C(CCc1nnc2n(Cc3ccccc3Cl)c(=O)c3ccccc3n12)N1CCN(c2ccc(F)cc2)CC1 | -10.6% | 1.02% | 1.3% | -5.77% | -0.153%
3 | CC1c2ccccc2CN1NC(=O)c1ccc(Cl)c(S(N)(=O)=O)c1 (stereo not given) | 0.557% | 4.84% | 5.27% | -13% | -1.24%
4 | O=c1ncn(CC2CC2)c2ccc(N3CCC(c4ccccc4)CC3)nc12 | -17.2% | -7.3% | -14.3% | -20.7% | -11.2%
5 | CCCCNC(=O)c1ccc2c(=O)nc3c(-c4ccc(Cl)cc4)n[nH]n3c2c1 | -12.3% | 0.871% | -2.05% | -3.5% | -3.1%
6 | Cc1cn2nc(C(=O)Nc3ccc4c(c3)OCCO4)cc2c(N(C)Cc2ccccc2)n1 | -9.26% | -1% | -13% | -3.73% | -1.35%
7 | Cc1ccc(C(=O)Cn2nc3n(CCC(C)C)c(=O)c4ccc(C(=O)NC(C)C)cc4n3c2=O)c(C)c1 | 6.1% | 3.77% | -4.78% | 3.26% | 4.47%
8 | C=CCn1c(=O)c2ccc(C(=O)NC(C)CC)cc2n2c(=O)n(CC(=O)NC3CCCC3)nc12 (stereo not given) | -0.259% | 4.67% | -1.2% | -4.21% | -1.42%
9 | CNC(=O)c1cn2c(n1)CN(C(=O)OCc1ccccc1)CC2 | -2.65% | -9.47% | -1.15% | -16.3% | -5.81%
10 | C/C=C/C=C/C(=O)OC1CC/C=C/C(O)C(O)C(CCC)OC1=O (stereo not given) | 0% | -11.2% | 4.73% | -23.8% | -10%
11 | COc1ccc(-c2n[nH]n3c2nc(=O)c2ccc(C(=O)NCc4ccc5c(c4)OCO5)cc23)cc1 | -12.2% | 2.75% | 0.651% | 1.71% | -11.4%
12 | COc1cccc(CNC(=O)CNC(=O)C2(C)Cn3c(cc4ccccc43)C(=O)N2C)c1 (stereo not given) | 4.26% | 0.715% | 6.31% | 13.5% | 3.25%
13 | CC(C)OCCCn1c(=O)c2ccccc2n2c(SCc3ccccc3F)nnc12 | -3.28% | 1.62% | 5.15% | -0.416% | 2.86%
14 | CC(=O)Nc1nc2c(Oc3cc(-c4ccc(C(F)(F)F)cc4)ncn3)cccc2s1 | -8.13% | -23.2% | 1.33% | -35.1% | -2.27%
15 | CS(=O)(=O)N1CCOc2ccc(CCC(=O)N3CCC(C(N)=O)CC3)cc2C1 | -0.065% | -3.27% | 0.351% | -0.033% | 0.355%
16 | C/C=C/C[C@@H](C)[C@@H](O)[C@H]1C(=O)N[C@@H](CC)C(=O)N(C)CC(=O)N(C)[C@@H](CC(C)C)C(=O)N[C@@H](C(C)C)C(=O)N(C)[C@@H](CC(C)C)C(=O)N[C@@H](C)C(=O)N[C@H](C)C(=O)N(C)[C@@H](CC(C)C)C(=O)N(C)[C@@H](CC(C)C)C(=O)N(C)[C@H](C(C)C)C(=O)N1C | -0.202% | – | 12.6% | – | –
17 | COc1ccccc1-c1onc(C)c1C(=O)NCCc1cccc(Cl)c1 | -7.9% | -3.44% | -3.51% | -12.9% | -4.36%
18 | COc1ccc(-c2cc3c(cn2)CN(CCc2ccccc2)CCN3)cc1OC | -71.9% | -16.8% | -92.6% | -56.7% | -65.8%
19 | COc1ccccc1CNC(=O)C1c2c(n(C)c3ccccc23)SCC(=O)N1Cc1ccco1 (stereo not given) | 2.9% | 1.52% | -3.66% | -7.46% | 2.05%
20 | Cc1nc([C@@H]2CN(Cc3ccc(C(F)(F)F)cc3)C[C@H]2C(N)=O)n[nH]1 | -4.12% | -0.277% | -1.93% | -8.35% | -4.69%

Row | Structure (SMILES) | activity change, negative = inhibition [1] | activity change, negative = inhibition [2] | activity change, negative = inhibition [3] | activity change, negative = inhibition [4] | activity change, negative = inhibition [5]
21 | CCC(C)NC(=O)c1ccc2c(=O)n(C)c3nn(CC(=O)Nc4ccc(C(C)C)cc4)c(=O)n3c2c1 (stereo not given) | 4.71% | 0.501% | 5.37% | 1.86% | 5.67%
22 | CC(C)c1ccc(-c2cc(=O)c3ccccc3o2)cc1 | -22.2% | -13.3% | -6.99% | -45.6% | -22.5%
23 | CC1CCN(S(=O)(=O)c2ccc3c(ccn3CC(=O)NCCc3ccccc3)c2)CC1 | 13.7% | 0% | 5.71% | -1.28% | 0.366%
24 | O=C(Nc1ccc(Cl)cc1Cl)c1cnn2ncccc12 | -6.15% | -13.2% | -6.47% | -20.6% | -30.8%
25 | Cc1cc2c(cc3n2CC(C)(C(=O)NC2CCCCC2)N(CCc2ccccc2)C3=O)o1 (stereo not given) | 7.75% | 1.94% | 5.9% | 5.05% | 2.72%
26 | CCC1Oc2ccc(NC(=O)Cc3cccs3)cc2CN(C2CCCc3ccccc32)C1=O (stereo not given) | -2.56% | -2.4% | -1.6% | -3.59% | -0.622%
27 | COCC(=O)N[C@H]1CC[C@]2(C)CC[C@@H](C(C)C(=O)NC3CC3)[C@H](O)[C@H]2[C@@H]1C (stereo not given in full) | -4.41% | -6.7% | -2.58% | -9.49% | -7.76%
28 | CC#CC(=O)N1CCC[C@H]1c1nc(-c2ccc(C(=O)Nc3ccccn3)cc2)c2c(N)nccn12 | 0.94% | 3.98% | 8.01% | -3.75% | 6.07%
29 | N[C@@H](Cc1c[nH]c2ccc(O)cc12)C(=O)O | -20.9% | 4.93% | -5.2% | -8.39% | 5.12%
30 | COc1ccc(C(=O)NC[C@H]2O[C@H](Cc3cc(CN4CCOCC4)on3)CC[C@@H]2O)cc1 | -4.8% | -10% | -3.37% | -11.8% | -4.26%
31 | CCc1ccccc1N1C(=O)c2cc(C(C)(C)C)nn2CC1(C)C(=O)NCCC(C)C (stereo not given) | 0.002% | 5.03% | 1.16% | -1.71% | -4.24%
32 | Cn1c(=O)c2ccc(C(=O)NC3CCCCC3)cc2n2c(=O)n(CC(=O)NC(C)(C)C)nc12 | 3.74% | 0.867% | 5.63% | 5.38% | 3.31%
33 | Cn1c(=O)c2ccc(C(=O)NC3CCCC3)cc2n2c(SCC(=O)NC3CCCC3)nnc12 | -1.04% | 4.38% | 4.91% | 1.22% | -1%
34 | CC(C)Cn1c(=O)c2ccc(C(=O)NC(C)C)cc2n2c(=O)n(CC(=O)NC3CCCC3)nc12 | 0.912% | 1.5% | 3.95% | -12.2% | -3.58%
35 | CC(C)n1nc(-c2ccc3oc(N)nc3c2)c2c(N)ncnc21 | 1.56% | 1.76% | 7.05% | -15.5% | -9.32%
36 | CCOc1ccccc1-c1noc(-c2nc(C)no2)n1 | 0.014% | -1.46% | 1.78% | -1.75% | 12.6%
37 | CC1(C(=O)NCc2ccc(Cl)cc2)Cn2c(ccc2-c2ccco2)C(=O)N1Cc1ccccc1F (stereo not given) | -5.7% | 0% | 4.74% | -14% | -9.41%
38 | O=S(=O)(NCc1nc(-c2ccccc2Cl)no1)c1ccccc1 | -3.94% | 5.84% | -0.611% | -4.52% | -6.11%
39 | Cc1ccc(C)c(C(=O)Cn2nc3n(CCc4ccccc4)c(=O)c4ccccc4n3c2=O)c1 | 0.76% | 3.24% | 3.31% | -1.8% | -1.25%
40 | NC(=O)[C@H](O[C@@H]1O[C@H](CO)[C@@H](O)[C@H](O)[C@H]1O)c1ccccc1 | 5.65% | 5.55% | 9.87% | -3.6% | 4.56%

Row | Structure (SMILES) | activity change, negative = inhibition [1] | activity change, negative = inhibition [2] | activity change, negative = inhibition [3] | activity change, negative = inhibition [4] | activity change, negative = inhibition [5]
41 | CC(C)(C)Oc1ccc(OCC2Cc3ccccc3CN2C(=O)c2cccc3ccccc23)cc1 (stereo not given) | -7.63% | -27.4% | -0.405% | -31.7% | -10.5%
42 | O=C(O)c1cc(C(F)(F)F)ccc1N1CC[C@H](OCc2ccccn2)C1 | -4.43% | -14.9% | 1.02% | -21.7% | -13.6%
43 | Cc1cc2c(cc3n2CC(C)(C(=O)NC2CCCCCCC2)N(Cc2ccc(Cl)cc2)C3=O)o1 (stereo not given) | -4.75% | 0% | 4.4% | -15% | -6.64%
44 | O=C1c2cnc(-c3ccsc3)nc2OCCN1CC1CC1 | -6.47% | -8.29% | -4.73% | -14.8% | -12.9%
45 | O=C1COCC2(CN(c3ccc(C(F)(F)F)cn3)C2)CN1c1ccccc1F | -8.41% | -7.56% | -0.584% | -16.7% | -1.59%
46 | CC(C)(C)c1cc2n(n1)CC(C)(C(=O)NC1CCCCC1)N(Cc1cccc(F)c1)C2=O (stereo not given) | 2.05% | 3.68% | 7.42% | -0.417% | 2.66%
47 | COc1cccc(N2C(=O)NC(=NC3CCCCC3)C23CCN(CC2CC2)C3)c1 (stereo not given) | -1.98% | 1.29% | 1.74% | -3.16% | 0.364%
48 | C[N+](C)(C)CCCCCCCCCC[N+](C)(C)C | -4.07% | 5.65% | -4.18% | -5.82% | 8.13%
49 | CC(=O)O[C@]1(C(C)=O)CC[C@H]2[C@@H]3CCC4=CC(=O)CCC4=C3[C@@H](c3ccc(N(C)C)cc3)C[C@@]21C | -4.96% | -8.29% | 0.816% | -34.6% | -14.8%
50 | Cc1ccc(-c2nc(NCc3ccncc3)ncc2C(=O)O)cc1 | -5.45% | -4.71% | -0.38% | -4.4% | -1.36%
51 | O=C(O)/C(=C/c1c(C(=O)O)[nH]c2cc(Cl)cc(Cl)c12)c1ccccc1 | -10.9% | 11.8% | 13.7% | -8.09% | -0.691%
52 | COc1ccccc1NC(=O)Nc1ccc2ccccc2c1 | -9.65% | -18.1% | 4.66% | -30.4% | -4.71%
53 | CCOC(=O)C1CCCN(S(=O)(=O)c2ccc3[nH]c(=O)[nH]c3c2)C1 (stereo not given) | -0.009% | 0% | -1.76% | -10.2% | -42.9%
54 | N#Cc1ccc(OCC2CN(Cc3cccc(C(F)(F)F)c3)C(=O)c3c(ccnc3-c3ccc(OCC(=O)O)cc3)O2)cc1 (stereo not given) | -11.1% | -2.51% | -1.15% | -6.54% | 4.64%
55 | CN(CCCNC(=O)CCc1nnc2n(Cc3ccccc3)c(=O)c3ccccc3n12)Cc1ccccc1 | -14.3% | 4.24% | -41.5% | -9.41% | -4.21%
56 | Fc1ccc(N2CCN(c3nc4ccccc4c4nc(-c5cccnc5)nn34)CC2)cc1 | – | -4.78% | – | -7.7% | 4.46%
57 | CCCCC1CCN(CCCC(=O)c2ccccc2C)CC1 | -3.94% | 11.9% | -13.1% | -9.99% | -11.4%
58 | Cc1ccc2cc(CN3CCN(CC(N)=O)CC3)c(-c3cccs3)nc2c1 | -2.61% | -0.852% | -2.02% | -1.79% | -15.6%
59 | Cc1nn(C)cc1C(=O)NCCn1c(C)cnc1C1CC1 | -0.311% | -0.382% | -12.2% | -0.906% | 1.23%
60 | COc1ccccc1C(=O)N(Cc1ccco1)S(=O)(=O)c1ccc2c(c1)n(C)c(=O)n2C | 4.88% | 1.21% | 1.42% | 9.95% | 1.92%
